# Source: patent US20190367516A1 (Bayer Pharma Aktiengesellschaft, priority 2015, published 2019)
# Biological target: T1, human M2 receptor (Homo sapiens, UniProt P08172)
# T1 sequence (P08172 1-466): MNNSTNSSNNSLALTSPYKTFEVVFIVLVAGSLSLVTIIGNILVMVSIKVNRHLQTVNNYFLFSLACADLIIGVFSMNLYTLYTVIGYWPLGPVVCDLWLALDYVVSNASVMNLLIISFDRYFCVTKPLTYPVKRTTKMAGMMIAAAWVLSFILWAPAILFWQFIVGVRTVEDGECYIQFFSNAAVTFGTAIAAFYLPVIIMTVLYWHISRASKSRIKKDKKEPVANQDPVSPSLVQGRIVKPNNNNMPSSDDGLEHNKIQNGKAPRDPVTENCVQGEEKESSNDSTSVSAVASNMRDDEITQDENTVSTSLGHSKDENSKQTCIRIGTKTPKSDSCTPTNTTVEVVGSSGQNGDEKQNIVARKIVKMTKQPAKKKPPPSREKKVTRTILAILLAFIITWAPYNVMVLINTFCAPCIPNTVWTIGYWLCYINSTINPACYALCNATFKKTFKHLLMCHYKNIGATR
# Settings: boosting of the acetylcholine effect at an EC20 acetylcholine concentration; for Emax: read-out: Efficiency, M2-GIRK1/4 activation test; for Efficiency: M2-GIRK1/4 activation test
Emax [%],Efficiency [%],SMILES
,99.5,"O=C(NC(c1ccccc1Cl)C(F)(F)F)c1cn(-c2ccccc2F)c2nc(N3CCC(O)C3=O)ccc2c1=O (single isomer, unassigned) [Example 291]"
88,,"N#CN1CCCN(c2ccc3c(=O)c(C(=O)N[C@@H](C4CC4)C(F)(F)F)cn(-c4c(F)cc(F)cc4F)c3n2)C1=O [Example 380, 7-(3-Cyano-2-oxotetrahydropyrimidin-1(2H)-yl)-N-[(1S)-1-cyclopropyl-2,2,2-trifluoroethyl]-4-oxo-1-(2,4,6-trifluorophenyl)-1,4-dihydro-1,8-naphthyridine-3-carboxamide]"
94.5,,"CC[C@H](NC(=O)c1cn(-c2ccc(F)cc2F)c2nc(N3C[C@H](C(=O)OC)OC3=O)ccc2c1=O)C(F)(F)F [Example 259, Methyl (5R)-3-[8-(2,4-difluorophenyl)-5-oxo-6-{[(2S)-1,1,1-trifluorobutan-2-yl]carbamoyl}-5,8-dihydro-1,8-naphthyridin-2-yl]-2-oxo-1,3-oxazolidine-5-carboxylate]"
100,,"CC[C@H](NC(=O)c1cn(-c2c(F)cccc2F)c2nc(N3C[C@@H](O)[C@H](O)C3)ccc2c1=O)C(F)(F)F [Example 348, 1-(2,6-Difluorophenyl)-7-[(3R,4R)-3,4-dihydroxypyrrolidin-1-yl]-4-oxo-N-[(2S)-1,1,1-trifluorobutan-2-yl]-1,4-dihydro-1,8-naphthyridine-3-carboxamide]"
93.7,,"O=C(N[C@H](C1CC1)C(F)(F)F)c1cn(-c2c(F)cc(F)cc2F)c2nc(N3CCNC3=O)ccc2c1=O [Example 342, N-[(1R)-1-Cyclopropyl-2,2,2-trifluoroethyl]-4-oxo-7-(2-oxoimidazolidin-1-yl)-1-(2,4,6-trifluorophenyl)-1,4-dihydro-1,8-naphthyridine-3-carboxamide]"
97.4,,"O=C(N[C@H](C1CC1)C(F)(F)F)c1cn(-c2c(F)cccc2F)c2nc(N3C[C@@H](O)CC3=O)ccc2c1=O (single isomer, unassigned) [Example 296]"
100,,"O=C(N[C@@H](C1CC1)C(F)(F)F)c1cn(-c2c(F)cccc2F)c2nc(N3C[C@@H](O)[C@H](O)C3)ccc2c1=O [Example 345, N-[(1 S)-1-Cyclopropyl-2,2,2-trifluoroethyl]-1-(2,6-difluorophenyl)-7-[(3R,4R)-3,4-dihydroxypyrrolidin-1-yl]-4-oxo-1,4-dihydro-1,8-naphthyridine-3-carboxamide]"
96,,"CC[C@@H](NC(=O)c1cn(-c2ccc(F)cc2F)c2nc(N3CC(C)CC3=O)ccc2c1=O)C(F)(F)F (single isomer, unassigned) [Example 302]"
100,,"CC(C)(C)C(NC(=O)c1cn(-c2c(F)cc(F)cc2F)c2nc(N3CCNC3=O)ccc2c1=O)C(F)(F)F (stereo in doubt) [Example 360, 4-Oxo-7-(2-oxoimidazolidin-1-yl)-N-[(2S)-1,1,1-trifluoro-3,3-dimethylbutan-2-yl]-1-(2,4,6-trifluorophenyl)-1,4-dihydro-1,8-naphthyridine-3-carboxamide]"
97,,"C[C@H](NC(=O)c1cn(-c2c(F)cccc2F)c2nc(N3CC4CC4(O)C3)ccc2c1=O)C(F)(F)F (single isomer, unassigned) [Example 312]"
100,,"CC[C@@H](NC(=O)c1cn(-c2ccc(F)cc2F)c2nc(N3C[C@@H](C(=O)OC)OC3=O)ccc2c1=O)C(F)(F)F [Example 257, Methyl (5S)-3-[8-(2,4-difluorophenyl)-5-oxo-6-{[(2R)-1,1,1-trifluorobutan-2-yl]carbamoyl}-5,8-dihydro-1,8-naphthyridin-2-yl]-2-oxo-1,3-oxazolidine-5-carboxylate]"

# Second part, the compound before the results:
SMILES,Emax [%],Efficiency [%]
"CC[C@@H](NC(=O)c1cn(-c2ccc(F)cc2F)c2nc(NCC(F)(F)F)ccc2c1=O)C(F)(F)F [Example 94, 1-(2,4-Difluorophenyl)-4-oxo-N-[(2R)-1,1,1-trifluorobutan-2-yl]-7-[(2,2,2-trifluoroethyl)amino]-1,4-dihydro-1,8-naphthyridine-3-carboxamide]",98.7,
"CN(C)c1ccc2c(=O)c(C(=O)NC3(C)CCCCC3)cn(-c3ccc(F)cc3Cl)c2n1 [Example 156, 1-(2-Chloro-4-fluorophenyl)-7-(dimethylamino)-N-(1-methylcyclohexyl)-4-oxo-1,4-dihydro-1,8-naphthyridine-3-carboxamide]",84.7,
"O=C(NC12CC3CC(CC(C3)C1)C2)c1cn(-c2ccc(F)cc2F)c2nc(N3CC[C@@H](F)[C@H](O)C3)ccc2c1=O [Example 3, 1-(2,4-Difluorophenyl)-7-[(3R,4R)-4-fluoro-3-hydroxypiperidin-1-yl]-4-oxo-N-(tricyclo[3.3.1.1^3,7]dec-1-yl)-1,4-dihydro-1,8-naphthyridine-3-carboxamide]",99.8,
"CC(C)(NC(=O)c1cn(-c2ccc(F)cc2F)c2nc(N3CCNC3=O)ccc2c1=O)c1c(F)cccc1F [Example 184, 1-(2,4-Difluorophenyl)-N-[2-(2,6-difluorophenyl)propan-2-yl]-4-oxo-7-(2-oxoimidazolidin-1-yl)-1,4-dihydro-1,8-naphthyridine-3-carboxamide]",99,
"CC[C@@H](NC(=O)c1cn(-c2ccc(F)cc2F)c2nc(N3CCC(C)(O)C3=O)ccc2c1=O)C(F)(F)F (single isomer, unassigned) [Example 195]",96.3,
CCC(NC(=O)c1cn(-c2ccc(F)cc2F)c2nc(N(C)CC(F)(F)F)ccc2c1=O)C(F)(F)F (racemic) [Example 100],96.3,
"O=C(NC12CC3CC(CC(C3)C1)C2)c1cn(-c2ccc(F)cc2F)c2nc(NCCO)ccc2c1=O [Example 79, 1-(2,4-Difluorophenyl)-7-[(2-hydroxyethyl)amino]-4-oxo-N-(tricyclo[3.3.1.1^3,7]dec-1-yl)-1,4-dihydro-1,8-naphthyridine-3-carboxamide]",92.2,
"CN(C)c1ccc2c(=O)c(C(=O)NC34CC5CC(F)(CC(F)(C5)C3)C4)cn(-c3ccc(F)cc3F)c2n1 [Example 38, 1-(2,4-Difluorophenyl)-N-(3,5-difluorotricyclo[3.3.1.1^3,7]dec-1-yl)-7-(dimethylamino)-4-oxo-1,4-dihydro-1,8-naphthyridine-3-carboxamide]",100,
"CN(C)c1ccc2c(=O)c(C(=O)NC(C)(C)C)cn(-c3ccc(F)cc3Cl)c2n1 [Example 155, N-tert-Butyl-1-(2-chloro-4-fluorophenyl)-7-(dimethylamino)-4-oxo-1,4-dihydro-1,8-naphthyridine-3-carboxamide]",97.7,
"CC[C@@H](NC(=O)c1cn(-c2ccc(F)cc2F)c2nc(N3CCC(O)(O)C(F)(F)C3)ccc2c1=O)C(F)(F)F [Example 35, 7-(3,3-Difluoro-4,4-dihydroxypiperidin-1-yl)-1-(2,4-difluorophenyl)-4-oxo-N-[(2R)-1,1,1-trifluorobutran-2-yl]-1,4-dihydro-1,8-naphthyridine-3-carboxamide]",98.8,
"O=C(NC12CC3CC(CC(C3)C1)C2)c1cn(-c2ccc(F)cc2F)c2nc(N3CCS(=O)(=O)C3)ccc2c1=O [Example 130, 1-(2,4-Difluorophenyl)-7-(1,1-dioxido-1,3-thiazolidin-3-yl)-4-oxo-N-(tricyclo[3.3.1.1^3,7]dec-1-yl)-1,4-dihydro-1,8-naphthyridine-3-carboxamide]",90,
"O=C(NC12CC3CC(CC(C3)C1)C2)c1cn(-c2ccc(F)cc2F)c2nc(N3CCC(O)(O)C(F)(F)C3)ccc2c1=O [Example 6, 7-(3,3-Difluoro-4,4-dihydroxypiperidin-1-yl)-1-(2,4-difluorophenyl)-4-oxo-N-(tricyclo[3.3.1.1^3,7]dec-1-yl)-1,4-dihydro-1,8-naphthyridine-3-carboxamide]",98.8,
"COC(=O)N1CCN(c2ccc3c(=O)c(C(=O)Nc4c(Cl)cccc4Cl)cn(-c4ccc(F)cc4F)c3n2)CC1 [Example 164, Methyl 4-{6-[(2,6-dichlorophenyl)carbamoyl]-8-(2,4-difluorophenyl)-5-oxo-5,8-dihydro-1,8-naphthyridin-2-yl}piperazine-1-carboxylate]",97.3,
"CC[C@H](NC(=O)c1cn(-c2ccc(F)cc2F)c2nc(N3CCC(O)C3)ccc2c1=O)C(F)(F)F (single isomer, unassigned) [Example 220]",,93.0
"CO[C@@H]1CCN(c2ccc3c(=O)c(C(=O)NC(C)(C)c4c(F)cccc4F)cn(-c4ccc(F)cc4F)c3n2)C1 [Example 22, 1-(2,4-Difluorophenyl)-N-[2-(2,6-difluorophenyl)propan-2-yl]-7-[(3R)-3-methoxypyrrolidin-1-yl]-4-oxo-1,4-dihydro-1,8-naphthyridine-3-carboxamide]",97.7,
"CC[C@H](NC(=O)c1cn(-c2ccc(F)cc2F)c2nc(N(C)C)ccc2c1=O)C(F)(F)F [Example 45, 1-(2,4-Difluorophenyl)-7-(dimethylamino)-4-oxo-N-[(2S)-1,1,1-trifluorobutan-2-yl]-1,4-dihydro-1,8-naphthyridine-3-carboxamide]",99.7,
CC12CCC(NC(=O)c3cn(-c4ccc(F)cc4F)c4nc(N5CC(O)CC5=O)ccc4c3=O)(CC1)CC2 (centres unmarked) [Example 181],94.5,
"CC(C)C(NC(=O)c1cn(-c2ccc(F)cc2F)c2nc(N3CC[C@H](F)C3)ccc2c1=O)C(F)(F)F (stereo partly drawn) [Example 69, 1-(2,4-Difluorophenyl)-7-[(3S)-3-fluoropyrrolidin-1-yl]-4-oxo-N-[1,1,1-trifluoro-3-methylbutan-2-yl]-1,4-dihydro-1,8-naphthyridine-3-carboxamide]",99.5,
